Values joined by “and” are separate entries in the source; they are usually repeats but may differ in a detail not shown here. Identical values can stand only once. Hit rate of the full screen: of about 150,000 compounds, about 540 (0.36%) showed an effect of 50% or more. Some of the results follow.
System: Plasmodium falciparum
Assay: Primary screen in NF54 nanoGlo assay, in single point, at 2uM, 72h; a lower Z score goes with more inhibition
Format: functional, Erythrocyte
Settings: timepoint 72 hour

Compound	% Inhibition [%]	Z score	% Inhibition (2 µM)
c1coc(C2CCN(C[C@H]3CCC4(CCCC4)O3)CC2)n1	-8	1.09	–
CCOc1cc2cc(c1)C(=O)N(C)CC(=O)N[C@@H]1CN(Cc3cc(O)nc(C)n3)CC[C@@H]1OCc1cccc(c1)O2	-20	3.81	–
Cc1noc(-c2cccnc2-n2ncc(C(=O)NCc3ccco3)c2C)n1	-17	2.64	–
O=C(NCc1cccs1)N1CC[C@H](Oc2cc(C(F)(F)F)ccn2)C1	-9	1.75	–
CC(NC(=O)C1CCC(c2ccccc2)N(C(=O)c2ccc(Cl)cc2)C1)c1ccccc1 (stereo not given)	-3	0.48	–
CCOc1ccc(CN[C@@H](CC)CO)cc1Br	–	–	1% and -3%
O=C(Nc1cccc(F)c1)Nc1cccc(-c2cc3ccccc3[nH]2)c1	3	-0.38	–
CCOCC(=O)N1CC(S(=O)(=O)Cc2ccco2)C1	1	-0.07	–
Cc1ccc(NC[C@H]2CCN(CC(=O)NCc3cccs3)C2)nc1	-1	0.15	–
CC(C)N1CCC(N2CCN(Cc3cccc4ccccc34)C[C@@H]2CCO)CC1	-1	0.09	–
C[C@]1(C#N)CCCN(C(=O)CCC(F)(F)F)C1	-8	1.33	–
CCN(CC)c1ncc(CNC2CC(C(F)(F)F)CC(C(F)(F)F)C2)s1 (stereo not given)	-15	2.14	–
COCc1nc(CO[C@H]2CCCN(S(=O)(=O)c3ccc(C(C)C)cc3)C2)no1	-8	1.14	–
CN(CCCO)C(=O)CO[C@H](c1ccccc1)C(F)(F)F	-7	1.23	–
Cc1cccc(C)c1NC(=O)[C@H](C)n1cnc2onc(-c3ccc(Cl)cc3)c2c1=O	-12	1.68	–
O=C(Oc1ccc2c(c1)OCO2)c1ccc(S(=O)(=O)N2CCOCC2)cc1	-87	16.34	–
CC1CCN(c2ccc(NC(=O)NC(C)C3CCCO3)cc2)C1 (stereo not given)	-4	0.53	–
Cc1cccc(OCC(=O)NCCn2c(C(F)(F)F)nc3cccnc32)c1	-9	1.18	–
CCC(C#N)C(=O)N[C@@H]1C[C@@H](C)Oc2ccccc21 (stereo not given in full)	-15	2.12	–
COc1ccc(NC(=O)Cn2cc(C(=O)c3ccncc3)c(=O)c3ccc(F)cc32)cc1Cl	0	0.06	–
N#Cc1c(NC(=O)CN2CC[C@H](C(N)=O)C2)sc2c1CCCC2	-8	1.31	–
Cc1nc[nH]c1CN1C[C@H]2CC[C@@H](C1)N(C(=O)c1ccncc1F)C2	-4	0.51	–
COc1cc(Cl)c(C)cc1NC(=O)c1cnn[nH]1	-17	3.31	–
c1cnc(N2CCN([C@H]3CCOC3)CC2)nc1	2	-0.33	–
O=C(Cn1nnc2ccccc21)NCCn1nc(-n2cncn2)ccc1=O	6	-0.94	–
COc1ccc(NC(=O)N(Cc2nccs2)C2CC2)c(OC)n1	1	-0.11	–
CCC(=O)N1CCc2nc(N3CCN(Cc4cccnc4)CC3)sc2C1	-10	1.68	–

Compound	% Inhibition [%]	Z score	% Inhibition (2 µM)
O=C1NC2(CCCC2)C(=O)N[C@H]1COCc1ccccc1	4	-0.54	–
COc1ccc(OC)c(NC(=O)C2CCCN2S(=O)(=O)c2cc3c(cc2C)NC(=O)C(C)O3)c1 (stereo not given)	4	-0.73	–
CC1CC(C)CN(C(=O)CCc2ccsc2)C1 (stereo not given)	-3	0.27	–
CCn1c(CC2CCN(C(=O)CCn3cc(C)cn3)CC2)nn(C)c1=O	6	-0.84	–
COCCN(CC1(C)CCOCC1)C(=O)c1sccc1C	8	-1.39	–
CCN(CC)Cc1cccc(C(=O)Nc2nc(C)n(C)n2)c1	-6	1.21	–
O=C(NC[C@H](c1cccs1)c1c[nH]c2ccccc12)c1ccc(Cl)cc1	-10	0.84	–
CCCS(=O)(=O)N(CCOC)CC(=O)N(Cc1ccc(Cl)cc1)C1CCN(C(=O)c2ccccc2OC)CC1	2	-0.32	–
C[C@H](NC(=O)CC1CCCCC1)C(=O)NCC(C)(C)N(C)C	-5	0.78	–
Cc1cc(C(=O)Nc2sc(C)c(C)c2C(=O)NCc2cccnc2)no1	-6	0.82	–
CC[C@H](NC(=O)Nc1cccc(-c2ncc(C)o2)c1)c1nccs1	-10	1.32	–
CCN1CC(=O)N[C@H]2CN(S(=O)(=O)N(C)C)CC[C@@H]2OCc2cccc(c2)Oc2cccc(c2)CC1=O	-4	0.8	–
CN(C)C(=O)c1cccc(CN[C@H]2CCc3c(O)cccc32)c1	-6	0.98	–
Cn1cc(C(=O)NC2CCN(Cc3ncc(Cl)n3C)CC2)cn1	-1	0.14	–
O=C(Nc1ccc(Nc2ccccc2)cc1)c1cc(C2CC2)on1	6	-0.7	–
COc1ccc2nc(O)c(CCC(=O)NCCN3CCOCC3)cc2c1	1	-0.1	–
OCC[C@H]1CCc2ccccc2N1Cc1ccon1	10	-1.27	–
CN(CCC1(O)CCCC1)C(=O)c1ncn[nH]1	-12	2.32	–
CCn1nc(C)cc1S(=O)(=O)NC(c1ccccc1)[C@H]1C[C@@H](O)C1 (stereo not given in full)	7	-1.38	–
Cc1oc2cc(C#N)c(C#N)cc2c1[C@H](C)O	-5	0.75	–
CN(C)S(=O)(=O)N(C)Cc1ccc(F)cc1Cl	-9	0.85	–
Cc1ccccc1C1C(C)CCCC1OCCN(C)C (stereo not given)	-13	1.55	–
Fc1ccc(CN2C[C@@H]3CC[C@H]2CN(Cc2ccncc2)C3)c(F)c1	-12	1.16	–
CON(C)C(=O)CNC(=O)c1ccccc1C	-14	2.16	–
O=C(NCc1ccc(F)c(Cl)c1)c1[nH]nnc1-c1cccc(Cl)c1	-6	1.2	–
COc1ccc(C(=O)Nc2cnc(N3CCNCC3)c(C(=O)N(CC(C)C)CC(C)C)c2)cc1	-3	0.39	–

Source: ChEMBL document CHEMBL4888484, “Replenishing the malaria drug discovery pipeline: Screening and hit evaluation of the MMV Hit Generation Library 1 (HGL1) against asexual blood stage Plasmodium falciparum ,using a nano luciferase reporter read-out” (2022)
